# Out of some 310,000 compounds screened, about 2,200 (0.71%) showed an effect of 50% or more. The effect is printed as a negative number. The list shows a part of the results.
# Molecular target: human ether-à-go-go-related gene (hERG) potassium channel (human, UniProt Q12809)
# Assay: primary screen, population patch clamp on CHO cells stably expressing hERG
# Sequence of human ether-à-go-go-related gene (hERG) potassium channel (Q12809 whole entry, looked up): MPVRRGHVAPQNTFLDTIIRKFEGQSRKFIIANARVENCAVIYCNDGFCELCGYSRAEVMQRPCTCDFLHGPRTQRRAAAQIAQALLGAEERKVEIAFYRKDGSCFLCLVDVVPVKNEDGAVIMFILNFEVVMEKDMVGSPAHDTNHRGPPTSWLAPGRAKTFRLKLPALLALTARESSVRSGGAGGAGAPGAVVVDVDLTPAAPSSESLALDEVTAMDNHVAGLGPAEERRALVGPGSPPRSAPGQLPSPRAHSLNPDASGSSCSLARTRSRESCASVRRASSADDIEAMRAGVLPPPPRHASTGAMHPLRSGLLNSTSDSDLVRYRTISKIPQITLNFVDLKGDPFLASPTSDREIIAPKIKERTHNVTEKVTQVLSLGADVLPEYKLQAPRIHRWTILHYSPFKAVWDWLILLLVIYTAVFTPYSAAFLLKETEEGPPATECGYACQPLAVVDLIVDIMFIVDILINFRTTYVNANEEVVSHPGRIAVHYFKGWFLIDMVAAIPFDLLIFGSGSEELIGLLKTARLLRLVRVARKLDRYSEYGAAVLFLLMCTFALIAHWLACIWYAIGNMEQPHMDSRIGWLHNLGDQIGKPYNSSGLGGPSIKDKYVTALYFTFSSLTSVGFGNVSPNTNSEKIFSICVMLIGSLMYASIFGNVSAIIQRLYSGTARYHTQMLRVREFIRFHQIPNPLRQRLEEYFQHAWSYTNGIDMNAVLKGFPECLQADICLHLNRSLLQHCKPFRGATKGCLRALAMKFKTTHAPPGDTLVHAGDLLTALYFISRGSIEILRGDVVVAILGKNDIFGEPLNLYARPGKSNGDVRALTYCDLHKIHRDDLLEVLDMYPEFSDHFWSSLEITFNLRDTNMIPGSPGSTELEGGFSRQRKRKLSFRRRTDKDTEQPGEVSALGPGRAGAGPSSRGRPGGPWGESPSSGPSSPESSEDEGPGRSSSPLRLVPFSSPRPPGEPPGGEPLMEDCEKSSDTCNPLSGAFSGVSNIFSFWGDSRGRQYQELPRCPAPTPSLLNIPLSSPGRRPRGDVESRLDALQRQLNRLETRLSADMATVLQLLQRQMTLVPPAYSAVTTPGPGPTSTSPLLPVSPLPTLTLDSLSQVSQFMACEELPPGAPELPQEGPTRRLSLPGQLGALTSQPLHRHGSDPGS
row,Structure (SMILES),"hERG current change (%, negative = inhibition) at 1uM [%]"
1,O=C(O)CCCCCCNC(=O)c1cncc(O)c1,15.9
2,Cc1oc(CSCC2CCCO2)cc1C(=O)O (stereo not shown),1.96
3,Cc1cccc(NC(=S)NC(=O)CCc2ccccc2)c1,-8.59
4,O=C(CN1CCCC1)NCC(=O)Nc1ccc(F)cc1,11.9
5,O=C(O)C(=O)O.c1cc2c(cc1CN1CCN(C3CCCCCC3)CC1)OCO2,3.18
6,CCN(CCNC(=O)C1CCN(Cc2nc(-c3ccc(Cl)cc3)oc2C)CC1)c1ccccc1,-6.12
7,CCn1c(SCC(=O)OC(C)C)nnc1-c1cccc(Cl)c1,10
8,O=C(N/N=C/c1ccc(Br)s1)c1ccccn1,-1.3
9,Cc1ccccc1CSc1nnc(C)n1N,-5.78
10,CCOCCCNC(=O)Cn1cnc2c(cnn2-c2ccc(OC)cc2)c1=O,4.24
11,O=C(CSc1ncccn1)NC(=O)Nc1ccc2c(c1)OCCO2,5.37
12,CC(C)c1cc(C(N)=O)c(NC(=O)C2CCC2)s1,-5.79
13,CN1CCN(Cc2cccc(Oc3ccccc3)c2)CC1,5.96
14,Cc1ccc(CSCC(=O)N(C)CC(=O)Nc2ccccc2C(F)(F)F)cc1,8.42
15,Cc1ccc(S(=O)(=O)N2CCCC(C(=O)NNCC(=O)Nc3cc(F)ccc3F)C2)cc1 (stereo not shown),-0.56
16,Cn1nc(NC(=O)CC23CC4CC(CC(C4)C2)C3)c2c(F)cccc21,11.9
17,Cc1cccc(N2CCN(Cc3nc(C4CC4)no3)CC2)n1,12.2
18,CC(=O)N/N=C(\C)CC(=O)Nc1cccc2c1CCCC2,16.1
19,Cc1ccc(C)n1-c1ncn[nH]1,15.4
20,OCCCNc1nnc(-c2ccccc2)c2ccccc12,6.76
21,CC(C)(C)OC(=O)N1CCC(C(=O)NCC2CCCO2)CC1 (stereo not shown),13.2
22,Cc1ccc(S(=O)(=O)NCCNC(=O)C2CCCNC2=O)cc1 (stereo not shown),9.69
23,CCOc1ccc(CCNC(=O)Cn2ncn3nc(-c4ccc(OC)cc4)cc3c2=O)cc1,6.1

row,Structure (SMILES),"hERG current change (%, negative = inhibition) at 1uM [%]"
1,CC(C)(C)c1ccc(OCC(O)CSc2ncn[nH]2)cc1 (stereo not shown),9.31
2,CCCCN(C)/C=N/c1c(C#N)cnn1-c1ccc(C)cc1,-2.79
3,CCn1c(=O)c2c(n3cnnc13)-c1ccccc1CC21CCCCC1,11
4,Cc1ccc(NC(=S)Nc2cccc3ccccc23)cc1F,7.59
5,C=CCNC(=O)C(=O)NCC1CCCN1S(=O)(=O)c1cccs1 (stereo not shown),16.5
6,CNc1csc(C)c(C)c1=O,20.5
7,O=C1CN(C(=O)c2ccc(Br)o2)C(c2ccccc2)c2cc(Br)ccc2N1 (stereo not shown),4.89
8,CCc1ccc(-n2c(Cc3ccccc3)n[nH]c2=S)cc1,1.36
9,CCS(=O)(=O)N1CCC(c2nc(-c3ccc(C)cc3)no2)CC1,-0.656
10,Cc1cccc(NC(=O)C2C(c3ccccc3)C2(Cl)Cl)c1 (stereo not shown),9.25
11,COc1ccc(-c2cc(C(=O)NCC3CCCO3)c3ccccc3n2)c(OC)c1 (stereo not shown),10.5
12,Cc1ccc(C)c(NC(=S)N(CCN(C)C)C(C)c2ccccn2)c1 (stereo not shown),-0.601
13,COC(=O)C1=C(c2ccc(OC(F)(F)F)cc2)C[C@@H]2CC[C@H]1N2C(=O)NCCOc1ccccc1Cl,11.4
14,Cl.OCCN1CCN(c2nc(NCc3ccco3)c3ccccc3n2)CC1,-39.4
15,O=C(CSc1ccc2nnc(-c3cccc(F)c3)n2n1)NCc1ccco1,-37.2
16,CCN(CC)CC(C)(C)NS(=O)(=O)c1ccc(Cl)cc1,5.99
17,CCc1c(C2(O)CCCCC2)[nH]c2ncccc12,11
18,CCOc1cc(C(F)(F)F)cnc1/C(N)=N/O,15.4
19,Cc1ccc(/C=N/Nc2nc(C)cc(C)n2)cc1,11.6
20,Cc1c(C(=O)Nc2ccc(N3CCOCC3)cc2)oc2ccccc12,12.3
21,COc1cccc(N(CC(=O)NC2CCCCCC2)S(=O)(=O)c2ccccc2)c1,12.1
22,CC12CCC(C(=O)N(c3cccc(Cl)c3)C1=O)C2(C)C (stereo not shown),4.37
23,Cn1c(=O)c(=O)n(C)c2cc(S(=O)(=O)N3CCOc4ccccc43)ccc21,0.459

# — PMC4336329 (PLoS ONE, 2015)
